Reference: PMC11995724, “Antibiotic target discovery by integrated phenotypic and activity-based profiling of electrophilic fragments” (Cell chemical biology, 2025)
Hit rate of the full screen: of about 3,200 compounds, about 75 (2%) showed an effect of 50% or more. This is one part of the list.

Tested on: T1, S. aureus MSSA476
T1 construct: MSSA476
Set-up: species or system S. aureus MSSA476 (TSB) or V. cholerae SAD30 (LB); 384-well bacterial growth screen at 25 uM, OD600 relative to DMSO control
Conditions: relative growth, OD600, TSB; 25 µM; inhibitor

Row | Structure (SMILES) | % of control remaining [%]
1 | O=C(CCl)NCc1cn[nH]c1C(F)F [7-D05, 2-chloro-N-{[5-(difluoromethyl)-1H-pyrazol-4-yl]methyl}acetamide] | 102.041
2 | CC(Cl)C(=O)N1CCN(Cc2cnn(-c3ccccc3)c2)CC1 (stereo not shown) [7-F13, 2-chloro-1-{4-[(1-phenyl-1H-pyrazol-4-yl)methyl]piperazin-1-yl}propan-1-one] | 98.2732
3 | C=CC(=O)N(C)CC(=O)NC1CCN(C(=O)c2ccc(C)cc2)CC1 [2-N14, N-methyl-N-({[1-(4-methylbenzoyl)piperidin-4-yl]carbamoyl}methyl)prop-2-enamide] | 106.876
4 | CCC(NC(=O)CCl)c1cccc(OC)n1 (stereo not shown) [7-D08, 2-chloro-N-[1-(6-methoxypyridin-2-yl)propyl]acetamide] | 112.088
5 | Cc1ccc(NC(=O)CCl)cc1S(=O)(=O)N1CCOCC1 [4-L07, 2-chloro-N-[4-methyl-3-(morpholine-4-sulfonyl)phenyl]acetamide] | 107.861
6 | O=CN1CCN(C(=O)CCl)CC1 [6-M17, 4-(2-chloroacetyl)piperazine-1-carbaldehyde] | 105.512
7 | CC(=O)NCCc1ccc(C(=O)CCl)cc1 [10-N03, N-{2-[4-(2-chloroacetyl)phenyl]ethyl}acetamide] | 113.125
8 | C=CC(=O)Nc1ncc(-c2cccc(C)c2)s1 [1-P14, N-[5-(3-methylphenyl)-1,3-thiazol-2-yl]prop-2-enamide] | 101.275
9 | COC(=O)c1sccc1N1C(=O)C=CC1=O [10-A07, methyl 3-(2,5-dioxo-2,5-dihydro-1H-pyrrol-1-yl)thiophene-2-carboxylate] | 125.625
10 | C=CC(=O)N(CC)CC(=O)N1CCC(c2nncn2C)CC1 [2-L10, N-ethyl-N-{2-[4-(4-methyl-4H-1,2,4-triazol-3-yl)piperidin-1-yl]-2-oxoethyl}prop-2-enamide] | 78.6771
11 | C=CC(=O)N1CCC(C(=O)NCCn2c(=O)[nH]c3ccccc32)CC1 [3-J03, N-[2-(2-oxo-2,3-dihydro-1H-1,3-benzodiazol-1-yl)ethyl]-1-(prop-2-enoyl)piperidine-4-carboxamide] | 114.584
12 | N#CCCN(C(=O)CCl)c1ccccc1 [6-I12, 2-chloro-N-(2-cyanoethyl)-N-phenylacetamide] | 108.244
13 | C=CC(=O)Nc1ccc(C(=O)NC2CC(C)(C)OC2=O)cc1 (stereo not shown) [3-B08, N-(5,5-dimethyl-2-oxooxolan-3-yl)-4-(prop-2-enamido)benzamide] | 93.3391
